PubChem BioAssay AID588591 (National Center for Advancing Translational Sciences (NCATS), 2011)
Values joined by “and” are separate entries in the source; they are usually repeats but may differ in a detail not shown here. Equal values may be shown once. Hit rate of the full screen: of about 390,000 compounds, about 4,700 (1.2%) were called active. The inconclusive results got no clear call from the source; some entries with a clear call stand among them for comparison. Calls come from the whole dose curve; as a rule, active = well fitted inhibition curve with a large enough effect; inconclusive = small, poorly fitted or top-dose-only effect, or another doubt; inactive = no such curve, though single readings can be large or run the other way. A potency beside an inconclusive call is a rough fit, not a confirmed value. A structure can be active in one record and inactive in another.

The compounds below were run against DNA polymerase eta (Homo sapiens) (UniProt Q9Y253) (assay: qHTS for Inhibitors of Polymerase Eta). Conditions: recombinant Pol eta, fluorescent DNA replication assay; series mostly up to 114 µM; activity change, negative = inhibition: at the top concentration.
How it was run: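 Fluorescent replication assay: 50 nM final substrate added after a 15 min room-temperature compound preincubation with 10 nM enzyme. Signal taken at 0 min and again at 10 min.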
% is set by controls: 0 for no effect and ±100 for the full control effect; potency is the fitted concentration of half-maximal effect; tags give direction and shape of the fitted curve.

Sequence of UniProt Q9Y253 (Q9Y253 whole entry, looked up): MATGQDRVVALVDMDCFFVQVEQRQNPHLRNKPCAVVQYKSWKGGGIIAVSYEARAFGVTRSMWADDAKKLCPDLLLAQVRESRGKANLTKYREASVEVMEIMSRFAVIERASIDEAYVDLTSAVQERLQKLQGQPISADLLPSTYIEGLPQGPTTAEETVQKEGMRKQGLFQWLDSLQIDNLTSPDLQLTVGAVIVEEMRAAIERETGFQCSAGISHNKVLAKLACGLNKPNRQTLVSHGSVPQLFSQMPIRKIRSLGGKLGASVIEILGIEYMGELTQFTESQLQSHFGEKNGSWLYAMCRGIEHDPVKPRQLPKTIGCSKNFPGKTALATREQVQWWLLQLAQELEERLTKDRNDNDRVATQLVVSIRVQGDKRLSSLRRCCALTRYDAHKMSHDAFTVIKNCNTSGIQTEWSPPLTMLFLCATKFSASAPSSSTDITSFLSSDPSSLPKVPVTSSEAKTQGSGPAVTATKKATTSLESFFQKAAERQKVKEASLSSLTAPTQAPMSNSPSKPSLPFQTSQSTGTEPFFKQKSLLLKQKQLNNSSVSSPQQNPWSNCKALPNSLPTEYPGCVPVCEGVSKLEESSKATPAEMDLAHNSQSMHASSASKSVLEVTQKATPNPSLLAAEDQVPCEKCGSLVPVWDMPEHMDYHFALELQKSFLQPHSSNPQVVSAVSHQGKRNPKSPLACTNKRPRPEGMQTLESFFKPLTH

SMILES | Potency | activity change, negative = inhibition
CCOc1cc(/C=N/N=C2/NC(=O)C(CC(=O)O)S2)ccc1OCc1ccc(Cl)cc1Cl (stereo unspecified) | active: 31.6 µM | 
C/C=C\C=C\C(=O)N1CC2(CC(c3cccc(NC(=O)CC(c4ccccc4)c4ccccc4)c3)=NO2)C[C@H]1C(N)=O (stereo partly specified) | inconclusive: 17.8 µM [inhibitor, full curve] | 
CC1CCN(c2nncc3ccccc23)CC1 | inconclusive: 100 µM [inhibitor, partial curve, poor fit] | 
CCOc1ccc(N2C(=O)C3Sc4[nH]c(=O)sc4C(/C=C/c4ccccc4)C3C2=O)cc1 (stereo unspecified) | inconclusive: 15.8 µM [inhibitor, full curve, poor fit] | 
CCOc1ccc(Nc2nc(N)c3ccccc3n2)cc1 |  | inactive: -19.9%
Cc1cccc(NC(=O)c2c(NC(=O)C(F)(F)F)sc3c2CCCCC3)c1 | active: 44.7 µM | 
O=C(O)c1ccc(N/N=C/C=C/c2ccc([N+](=O)[O-])o2)cc1 | active: 22.4 µM | 
CN=C1SC(CC(=O)NCCc2ccc(OC)c(OC)c2)C(=O)N1C (stereo unspecified) | inactive and active: 56.2 µM | 
COc1ccc(/C=N/n2c(-c3ccco3)nc3ccccc3c2=O)cc1 | inconclusive: 25.1 µM [inhibitor, partial curve, poor fit] | 
O=C(c1ccco1)N1CCN(c2nc3ccsc3c(=O)s2)CC1 | inconclusive: 39.8 µM [inhibitor, partial curve, poor fit] | 
Cc1ccc(N2C(=O)C(Cl)=C(N3CCN(C)CC3)C2=O)c(C)c1 | inconclusive: 89.1 µM [inhibitor, single point] | 
Cc1cc(/C=N/NC(N)=S)c(O)c(/C=N/NC(N)=S)c1 |  | inactive: -10.4%
O=C(CCc1nc(-c2ccccc2F)no1)Nc1ccc(Oc2ccccc2)cc1 | inconclusive: 89.1 µM [inhibitor, partial curve, poor fit] | 
O=C(Nc1nnc(C2CC2)s1)c1cc([N+](=O)[O-])ccc1N1CCCCC1 | inconclusive: 56.2 µM [inhibitor, partial curve, poor fit] | 
Cc1ccc2nc3sc(C(=O)Nc4c(C)[nH]c(=O)[nH]c4=O)c(N)c3cc2c1 | inconclusive: 22.4 µM [inhibitor, single point] | 
COc1cc(C(=O)N2CCN(c3cccc(C(F)(F)F)c3)CC2)ccc1OCC(=O)N1CCOCC1 |  | inactive: -10.9%
Cn1c(NCCO)nc2c1c(=O)n(Cc1ccccc1Cl)c(=O)n2C |  | inactive: -17.9%
CCc1ccc(/C=C2\SC(=S)N(CCCC(=O)N3CCCC3)C2=O)cc1 | inconclusive: 79.4 µM [inhibitor, partial curve, poor fit] | 
CCn1c(CSc2nnc(-c3ccncc3)n2CCOC)nc2cc(C(=O)O)ccc21 | inconclusive: 35.5 µM [inhibitor, partial curve, poor fit] | 
Cc1noc(C)c1S(=O)(=O)N1CCC(C(=O)N2CCN(c3ccccc3)CC2)CC1 | inconclusive: 70.8 µM [inhibitor, partial curve, poor fit] | 
COc1ccc(/C=N/Nc2cc(C)nc3ccccc23)cc1 | inconclusive: 44.7 µM [inhibitor, partial curve] | 

SMILES | Potency | activity change, negative = inhibition
CC1(C)CC(=O)C2=C(C1)NC(=O)CC2c1cccc(F)c1 (stereo unspecified) | inconclusive: 12.6 µM [inhibitor, partial curve, poor fit] | 
CCc1ccc(-n2nc(C)c3c(C)cc(=O)n(CC(=O)N4CCCc5ccccc54)c32)cc1 |  | inactive: 4.9%
CC(=O)NC1C(=O)N(CCN2CCOCC2)c2ccc(F)cc21 (stereo unspecified) | inconclusive: 89.1 µM [inhibitor, single point] | 
O=C(NCc1ccco1)c1ccc(COc2ccccc2Cl)cc1 | inconclusive: 14.1 µM [inhibitor, partial curve, poor fit] | 
COc1ccc2[nH]c3c(C)c4cc[n+](C)cc4c(C)c3c2c1 | active: 1.12 µM | 
Cc1cc(C)nc(N/N=C/c2sccc2C)n1 |  | inactive: -5.57%
O=C(NC(=S)Nc1cccc2cc(O)ccc12)c1ccccc1Br | inconclusive: 11.2 µM [inhibitor, partial curve, poor fit] | 
Cc1ccc(-c2cc3c(n2-c2ccc(C(=O)O)cc2)CCCC3=O)cc1 | inconclusive: 39.8 µM [inhibitor, partial curve, poor fit] | 
O=C(CCC(=O)NC1CCCCC1)N/N=C/c1ccncc1 | inconclusive: 79.4 µM [inhibitor, partial curve, poor fit] | 
CC(=O)Nc1cc(NC(C)=O)cc(C(=O)OCC(=O)N(c2ccccc2)C2CCS(=O)(=O)C2)c1 (stereo unspecified) | inconclusive: 28.2 µM [inhibitor, full curve] | 
CN(c1ncnc2onc(-c3cccc(Cl)c3)c12)C1CCCCC1 | inconclusive: 79.4 µM [inhibitor, partial curve, poor fit] | 
O=C(NCc1ccccc1)c1sc(=S)n2c1[nH]c(=O)c1ccccc12 | inconclusive: 89.1 µM [inhibitor, partial curve, poor fit] | 
Cn1c(=O)c2c(SCC(=O)NCc3ccco3)nc(-c3ccccc3)nc2n(C)c1=O |  | inactive: -7.52%
O=C(CC(=O)N/N=C/c1ccc(O)cc1)N/N=C/c1ccc(O)cc1 | inconclusive: 79.4 µM [inhibitor, partial curve, poor fit] | 
Cc1cccc(OCC(=O)Nc2ccc(N3CCN(S(C)(=O)=O)CC3)cc2)c1 | inconclusive: 3.98 µM [inhibitor, partial curve, poor fit] | 
CCOc1ccc(/C=C2\SC(=S)N(C(C(=O)O)c3ccccc3)C2=O)cc1OC (stereo unspecified) | active: 79.4 µM | 
COc1ccc(NS(=O)(=O)c2ccc(OC)c(N(C)S(=O)(=O)c3ccc(Cl)cc3)c2)cc1 |  | inactive: -19.7%
COc1ccc(OC)c(-c2nnc3n(Cc4ccc(C)cc4)c(=O)c4ccccc4n23)c1 | inconclusive: 79.4 µM [inhibitor, partial curve, poor fit] | 
Cc1ccc2[nH]c3c(=S)nc[nH]c3c2c1 | inconclusive: 39.8 µM [inhibitor, single point] | 
CCC(Sc1nc2ccsc2c(=O)n1Cc1ccc(C(=O)O)cc1)C(=O)Nc1ccc(C)c(Cl)c1 (stereo unspecified) | active: 79.4 µM | 
